About 16,000 (4.4%) of roughly 360,000 compounds were called active. Inconclusive results, whose numbers are uncertain, are shown with a selection of clear calls. Calls come from the whole dose curve; as a rule, active = well fitted inhibition curve with a large enough effect; inconclusive = small, poorly fitted or top-dose-only effect; inactive = no such curve, though single readings can be large or run the other way. Potencies beside an inconclusive call are fits to weak or partial responses and may not hold up.
Biological target: Bromodomain adjacent to zinc finger domain protein 2B (Homo sapiens) (UniProt Q9UIF8)
Assay: qHTS Assay for Inhibitors of BAZ2B; note: nearly all actives have a fitted effect of over 60% in size
Conditions: AlphaScreen BAZ2B-H3K14Ac peptide displacement; series mostly up to 114 µM
Outline: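 AlphaScreen displacement of biotin-H3(5-23)K14Ac peptide (50 nM final) from BAZ2B (50 nM final) in PBS pH 7.4, 0.01% Tween-20; complex preformed 30 min RT, then compounds (top 110 uM) 30 min RT, beads 20 min dark.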
Potency is the fitted concentration of half-maximal effect; tags give direction and shape of the fitted curve.

Sequence of UniProt Q9UIF8 (Q9UIF8 whole entry, looked up, the tested form may be a part): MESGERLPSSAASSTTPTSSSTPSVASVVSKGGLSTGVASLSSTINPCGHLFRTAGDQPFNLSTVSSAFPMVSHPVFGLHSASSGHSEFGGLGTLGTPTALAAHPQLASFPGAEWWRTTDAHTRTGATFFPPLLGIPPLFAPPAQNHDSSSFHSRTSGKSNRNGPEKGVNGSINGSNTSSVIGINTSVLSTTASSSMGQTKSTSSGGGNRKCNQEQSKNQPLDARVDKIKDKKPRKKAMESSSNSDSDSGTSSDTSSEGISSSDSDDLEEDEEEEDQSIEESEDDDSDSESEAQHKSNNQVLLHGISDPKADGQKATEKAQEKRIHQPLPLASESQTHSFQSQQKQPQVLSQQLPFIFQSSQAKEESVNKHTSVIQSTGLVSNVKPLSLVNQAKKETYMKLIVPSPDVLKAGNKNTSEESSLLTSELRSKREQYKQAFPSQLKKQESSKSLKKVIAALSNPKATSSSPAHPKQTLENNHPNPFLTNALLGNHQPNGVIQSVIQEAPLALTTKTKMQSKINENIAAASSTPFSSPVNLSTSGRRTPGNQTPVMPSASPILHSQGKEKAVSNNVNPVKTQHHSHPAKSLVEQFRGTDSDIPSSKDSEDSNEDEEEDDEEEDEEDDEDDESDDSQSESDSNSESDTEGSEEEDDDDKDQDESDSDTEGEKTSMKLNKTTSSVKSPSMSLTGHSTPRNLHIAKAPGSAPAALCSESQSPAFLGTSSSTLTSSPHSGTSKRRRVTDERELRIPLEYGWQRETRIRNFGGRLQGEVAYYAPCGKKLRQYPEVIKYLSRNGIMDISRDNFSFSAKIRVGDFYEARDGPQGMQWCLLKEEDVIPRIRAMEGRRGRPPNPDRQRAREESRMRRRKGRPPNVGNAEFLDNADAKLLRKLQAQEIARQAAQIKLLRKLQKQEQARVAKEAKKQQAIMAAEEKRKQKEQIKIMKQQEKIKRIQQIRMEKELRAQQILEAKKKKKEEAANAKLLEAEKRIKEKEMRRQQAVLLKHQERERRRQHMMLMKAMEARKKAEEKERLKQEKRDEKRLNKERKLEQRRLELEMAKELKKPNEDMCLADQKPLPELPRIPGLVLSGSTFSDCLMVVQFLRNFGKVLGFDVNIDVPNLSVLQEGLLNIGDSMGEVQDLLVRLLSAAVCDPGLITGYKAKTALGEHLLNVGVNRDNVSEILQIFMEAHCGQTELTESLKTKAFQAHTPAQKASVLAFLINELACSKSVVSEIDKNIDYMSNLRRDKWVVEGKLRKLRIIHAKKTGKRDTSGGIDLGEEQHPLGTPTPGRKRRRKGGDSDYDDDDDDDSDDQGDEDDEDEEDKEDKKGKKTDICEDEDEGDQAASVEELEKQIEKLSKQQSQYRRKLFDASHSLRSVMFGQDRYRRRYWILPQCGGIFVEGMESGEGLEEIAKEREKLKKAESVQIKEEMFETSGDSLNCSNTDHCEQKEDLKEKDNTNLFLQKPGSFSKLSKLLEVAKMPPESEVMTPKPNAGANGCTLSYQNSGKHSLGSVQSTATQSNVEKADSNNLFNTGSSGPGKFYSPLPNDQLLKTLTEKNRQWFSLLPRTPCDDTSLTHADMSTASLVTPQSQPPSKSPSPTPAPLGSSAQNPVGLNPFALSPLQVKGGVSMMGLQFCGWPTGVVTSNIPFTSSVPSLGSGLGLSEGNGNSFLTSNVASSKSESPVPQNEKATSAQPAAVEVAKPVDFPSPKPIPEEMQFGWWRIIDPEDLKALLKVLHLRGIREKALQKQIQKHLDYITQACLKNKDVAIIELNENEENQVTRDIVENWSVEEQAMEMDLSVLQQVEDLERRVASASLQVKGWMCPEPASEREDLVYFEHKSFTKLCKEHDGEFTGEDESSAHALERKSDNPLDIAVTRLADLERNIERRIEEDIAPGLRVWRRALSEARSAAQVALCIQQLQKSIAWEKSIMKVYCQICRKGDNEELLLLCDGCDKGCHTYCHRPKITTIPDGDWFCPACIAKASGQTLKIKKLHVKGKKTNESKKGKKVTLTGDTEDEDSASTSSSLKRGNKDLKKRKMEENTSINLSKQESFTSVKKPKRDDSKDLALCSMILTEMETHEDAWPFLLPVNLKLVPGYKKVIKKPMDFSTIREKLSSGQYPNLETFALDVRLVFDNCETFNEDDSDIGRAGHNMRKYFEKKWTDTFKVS

Row | SMILES | Potency
1 | Cc1cc(=O)oc2c(CN3CC(C)OC(C)C3)c(O)c(Cl)cc12 (stereo not given) | inconclusive: 79.4 µM [inhibitor, partial curve]
2 | COc1ccc(C(=O)OCCCc2cc3ccccc3c(=O)o2)cc1 | inactive
3 | CCS(=O)(=O)Nc1ccc(C2=NN(C(=S)Nc3ccccc3)C(c3ccco3)C2)cc1 (stereo not given) | inconclusive: 70.8 µM [inhibitor, single point]
4 | CCCc1cc(C(=O)Nc2cccc([N+](=O)[O-])c2)cs1 | inconclusive: 79.4 µM [inhibitor, single point]
5 | COc1cc2c(cc1OC)C1OC(c3ccsc3)(C2)Oc2cc(C)oc(=O)c21 (stereo not given) | inconclusive: 14.1 µM [inhibitor, single point]
6 | O=C(CCc1ccc(Oc2cc([N+](=O)[O-])cc([N+](=O)[O-])c2)cc1)N1CCCCC1 | active: 25.1 µM
7 | COc1ccc(C(=O)O)cc1NC(=S)NC(=O)c1ccc(-c2ccc(Cl)cc2)o1 | inconclusive: 79.4 µM [inhibitor, partial curve]
8 | O=S(=O)(c1ccc2ccccc2c1)N1CCN(C2CCN(Cc3ccccc3)CC2)CC1 | active: 28.2 µM
9 | COc1ccc(N2CCN(c3oc(/C=C/c4cc(OC)c(OC)c(OC)c4)nc3C#N)CC2)cc1 | inconclusive: 3.55 µM [inhibitor, full curve]
10 | Cn1c(=O)[nH]c(Nc2ccccc2)c([N+](=O)[O-])c1=O | inconclusive: 89.1 µM [inhibitor, single point]
11 | COc1cc(C(=S)N2CCOCC2)ccc1OC(=O)c1cccc(C)c1 | inconclusive: 89.1 µM [inhibitor, single point]
12 | Cc1ccc(C(=O)N2CCN(c3nc4ccccc4n3C)CC2)cc1 | inactive
13 | COc1ccc(NS(=O)(=O)c2cc(NC(=O)c3cc(F)c(F)c(F)c3F)ccc2N2CCCC2)cc1 | inactive
14 | COc1ccc2c(c1)CC(C(=O)NCCCN1CCN(c3ccc(F)cc3)CC1)CO2 (stereo not given) | inconclusive: 44.7 µM [inhibitor, partial curve]
15 | Cc1ccc(CNC(=O)c2ccc(-n3cccc3)cc2)cc1 | active: 25.1 µM
16 | CC(=O)c1c(C)[nH]c(C(=O)OCC(=O)C(C)(C)C)c1C | inconclusive: 89.1 µM [inhibitor, single point]
17 | COc1ccc(CNc2ccc3cn[nH]c3c2)c(OC)c1OC | inconclusive: 79.4 µM [inhibitor, single point]
18 | CCOC(=O)C1=C(C)Nc2ccccc2S1 | active: 39.8 µM
19 | COC(=O)c1ccc2c(c1)NC(=O)CS2 | inactive
20 | CCOC(=O)c1c(-c2ccccc2)oc2ccc(O)cc12 | active: 70.8 µM
21 | COc1ccccc1N=CC=C1OC(C)(C)C(C)(C)O1 | inconclusive: 79.4 µM [inhibitor, partial curve]
22 | O=C(c1ccco1)N1CCN(S(=O)(=O)c2ccc(Br)cc2)CC1 | inactive
23 | CCOC(=O)Cn1c(=O)c(-c2cc(Br)ccc2N)nc2ccccc21 | inactive
24 | Nc1c(-c2ccc(Cl)cc2)cnn1-c1ccccc1 | inactive

Row | SMILES | Potency
25 | Cc1ccsc1/C=N/NC(=O)Cc1cccn1C | inconclusive: 70.8 µM [inhibitor, single point]
26 | Cc1ccc(OCc2cc(C(=O)NCc3cn4ccccc4n3)no2)cc1C | inconclusive: 39.8 µM [inhibitor, single point]
27 | CC(=O)c1ccc(NC2c3ncccc3C(=O)N2Cc2ccc(F)cc2)cc1 (stereo not given) | inconclusive: 89.1 µM [inhibitor, single point]
28 | c1ccc(Oc2ccc(-n3cnnn3)cc2)cc1 | inactive
29 | N#Cc1c(-c2cccs2)nc(SCC(=O)c2ccc(Br)cc2)[nH]c1=O | inconclusive: 79.4 µM [inhibitor, single point]
30 | CC(=O)Nc1ccc(N(C)C)cc1[N+](=O)[O-] | inconclusive: 89.1 µM [inhibitor, single point]
31 | CNCCCOc1ccc(C(C)(C)c2ccccc2)cc1 | active: 79.4 µM
32 | CCN(CC)S(=O)(=O)c1nnc(NC(=O)COc2ccccc2Cl)s1 | inconclusive: 3.16 µM [inhibitor, full curve]
33 | CCOC(=O)c1cc2oc(C(c3nnnn3C3CCCCC3)N3CCOCC3)cc2[nH]1 (stereo not given) | inconclusive: 79.4 µM [inhibitor, single point]
34 | CCOc1ccccc1NC(=O)Nc1cc(C(=O)O)ccc1C | inconclusive: 89.1 µM [inhibitor, single point]
35 | O=C1c2ccccc2NC(c2cc(Cl)cc(Cl)c2O)N1Cc1cccnc1 (stereo not given) | inconclusive: 70.8 µM [inhibitor, single point]
36 | COC(=O)C1=CC(C(=O)c2cccs2)=NN(c2ccc(OC)cc2)C1C(=O)OC (stereo not given) | active: 8.91 µM
37 | O=C(CNC(=O)c1ccc2c(c1)OCO2)Nc1ncccc1O | inconclusive: 89.1 µM [inhibitor, single point]
38 | NC(=O)C[C@H](N)c1cn([C@@H](CC(N)=O)C(=O)N2CCNCC2)nn1 | inconclusive: 89.1 µM [inhibitor, single point]
39 | CCOc1cc(N2CCOCC2)c(OCC)cc1NC(=O)COc1cccc2cccnc12 | inconclusive: 79.4 µM [inhibitor, single point]
40 | O=C(CN1CCC(C(=O)c2ccc(F)cc2)CC1)Nc1ccc(F)cc1 | inactive
41 | COc1ccc(-c2nnc(NC(=O)c3ccccc3[N+](=O)[O-])s2)c(OC)c1 | inactive
42 | Cc1ccc(Nc2nc(-c3c(C)nc4ncccn34)cs2)cc1 | inconclusive: 89.1 µM [inhibitor, single point]
43 | Cc1ccc(C2CC(c3ccc(NS(C)(=O)=O)cc3)=NN2C(=O)c2ccco2)cc1 (stereo not given) | inactive
44 | COCCCn1c(SCc2cccc(C(F)(F)F)c2)nc2cc(OC)c(OC)cc2c1=N | inconclusive: 25.1 µM [inhibitor, partial curve, poor fit]
45 | Cc1cccc(NC(=O)C2CCN(S(=O)(=O)c3cccs3)CC2)c1 | inconclusive: 0.708 µM [inhibitor, partial curve, poor fit]
46 | COC(=O)C1=C(C)N(Cc2ccc(C)cc2)C(=O)/C1=C\c1ccc(O)c(OC)c1 | active: 50.1 µM
47 | COc1ccc(NC(=O)Cc2csc(NC(=O)Nc3ccccc3OC)n2)c(OC)c1 | inconclusive: 79.4 µM [inhibitor, single point]
48 | O=C(CCNc1ccccc1)c1ccc2c(c1)OCO2 | inconclusive: 50.1 µM [inhibitor, partial curve]

Row | SMILES | Potency
49 | CC1CCCC(NC(=O)CSc2nccn2C)C1C (stereo not given) | inconclusive: 79.4 µM [inhibitor, single point]
50 | CCOc1ccccc1N(CC)C(=O)c1nn(C)c2c1CSc1ccccc1-2 | inconclusive: 70.8 µM [inhibitor, single point]
51 | CCCOc1ccc(-c2nn(-c3ccccc3)cc2C2NC(=O)NC(C)=C2C(=O)OC(C)C)cc1 (stereo not given) | inconclusive: 79.4 µM [inhibitor, partial curve]
52 | CC(C)Cn1c(=O)c2ccccc2n2c(CCC(=O)Nc3cccc(Cl)c3)nnc12 | inactive
53 | COc1cccc(-n2nnc3c(=O)n(CC(=O)N4CCCCC4)cnc32)c1 | inactive
54 | O=C1C2C3C=CC(C3)C2C(=O)N1/N=C/c1ccc(-c2ccccc2[N+](=O)[O-])o1 (stereo not given) | inconclusive: 89.1 µM [inhibitor, single point]
55 | COc1cc2c(cc1NC(=O)CSc1nnc(COc3ccc(Cl)cc3)n1C)oc1ccccc12 | inconclusive: 89.1 µM [inhibitor, single point]
56 | CN1CCN(c2ccccc2NC(=O)c2cccc(OCc3ccccc3)c2)CC1 | inconclusive: 31.6 µM [inhibitor, full curve, poor fit]
57 | Cc1cccc(C)c1OCCN1CCCC1 | inconclusive: 89.1 µM [inhibitor, single point]
58 | Cc1ccc(C(=O)COC(=O)c2ccc3c(c2)C(=O)N(c2cccc4ncccc24)C3=O)cc1C | inconclusive: 50.1 µM [inhibitor, partial curve]
59 | N#Cc1c(NC(=O)C2CC(Cl)=CCC2C(=O)O)sc2c1CCCC2 (stereo not given) | inconclusive: 79.4 µM [inhibitor, partial curve]
60 | Cc1cc(OCC(=O)NCCN2CCOCC2)c2c(C)c(C)c(=O)oc2c1 | inactive
61 | COc1ccc(OC)c(S(=O)(=O)CC(O)COc2ccccc2Cl)c1 (stereo not given) | inconclusive: 89.1 µM [inhibitor, single point]
62 | Cc1cc(C)c(C)c(OCCn2ccnc2)c1 | inactive
63 | COc1ccc(C(=O)NC(=S)N2CCCc3ccccc32)cc1OC | inconclusive: 44.7 µM [inhibitor, partial curve]
64 | Cc1cc(C=O)c(C)n1-c1ccc(Cl)c(C(=O)O)c1 | active: 25.1 µM
65 | O=C(O)c1cccc2c1C(=O)c1ccc(-c3ccc(F)cc3OCc3ccccc3)cc1S2(=O)=O | active: 79.4 µM
66 | CC1(C)CC(=O)C=C(Nc2ccccc2C#N)C1 | inconclusive: 89.1 µM [inhibitor, single point]
67 | CC1c2[nH]c3ccccc3c2CCN1C(=O)Nc1ccccc1 (stereo not given) | inconclusive: 79.4 µM [inhibitor, single point]
68 | Cc1onc(-c2ccccc2)c1C(=O)N/N=C/c1cc(Br)c(Br)o1 | inconclusive: 31.6 µM [inhibitor, partial curve]
69 | Cc1onc(-c2ccc(Cl)cc2Cl)c1-c1csc(N/N=C/c2ccccc2)n1 | inconclusive: 89.1 µM [inhibitor, single point]
70 | CN(C)CCNC(=O)c1ccc(-n2c(-c3ccccc3)cc3c2CCCC3)cc1 | inconclusive: 89.1 µM [inhibitor, single point]

From PubChem BioAssay AID504333 (National Center for Advancing Translational Sciences (NCATS), 2011)
